This is an account of results in PMC4336329 (PLoS ONE, 2015).

In all, about 310,000 compounds went through this assay and about 2,200 (0.71%) showed an effect of 50% or more. The effect is printed as a negative number. Some of the results follow.

Chain of human ether-à-go-go-related gene (hERG) potassium channel (Q12809 whole entry, looked up): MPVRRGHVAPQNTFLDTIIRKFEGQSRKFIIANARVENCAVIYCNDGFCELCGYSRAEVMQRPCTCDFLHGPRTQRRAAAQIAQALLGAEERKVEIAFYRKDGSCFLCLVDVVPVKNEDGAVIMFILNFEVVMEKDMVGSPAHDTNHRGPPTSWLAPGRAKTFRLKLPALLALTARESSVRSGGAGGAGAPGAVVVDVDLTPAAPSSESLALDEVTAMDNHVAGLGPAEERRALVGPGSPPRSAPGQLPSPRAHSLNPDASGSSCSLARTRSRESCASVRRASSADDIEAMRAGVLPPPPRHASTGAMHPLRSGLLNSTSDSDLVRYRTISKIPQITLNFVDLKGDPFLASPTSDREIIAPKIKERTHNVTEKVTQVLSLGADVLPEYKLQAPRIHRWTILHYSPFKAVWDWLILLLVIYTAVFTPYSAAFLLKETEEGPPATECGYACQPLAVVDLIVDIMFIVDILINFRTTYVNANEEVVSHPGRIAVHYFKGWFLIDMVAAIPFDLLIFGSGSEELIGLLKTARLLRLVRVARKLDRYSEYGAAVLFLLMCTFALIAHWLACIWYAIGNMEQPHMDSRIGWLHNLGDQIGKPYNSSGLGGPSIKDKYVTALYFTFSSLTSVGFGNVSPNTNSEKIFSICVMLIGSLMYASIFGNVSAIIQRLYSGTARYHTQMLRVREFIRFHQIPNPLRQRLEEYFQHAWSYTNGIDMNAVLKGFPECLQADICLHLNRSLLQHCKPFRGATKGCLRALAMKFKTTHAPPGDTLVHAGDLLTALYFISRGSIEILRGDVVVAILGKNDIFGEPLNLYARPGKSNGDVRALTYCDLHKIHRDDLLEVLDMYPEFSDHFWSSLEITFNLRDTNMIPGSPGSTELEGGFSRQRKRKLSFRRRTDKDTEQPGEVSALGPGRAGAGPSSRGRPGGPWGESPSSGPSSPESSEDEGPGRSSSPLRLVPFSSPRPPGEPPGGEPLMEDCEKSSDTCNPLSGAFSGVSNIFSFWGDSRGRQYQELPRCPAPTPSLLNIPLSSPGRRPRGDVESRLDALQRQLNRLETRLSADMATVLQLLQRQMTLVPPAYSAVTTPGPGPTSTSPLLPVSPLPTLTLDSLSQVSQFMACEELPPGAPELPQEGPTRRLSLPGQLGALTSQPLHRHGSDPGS

The experiment concerns the target human ether-à-go-go-related gene (hERG) potassium channel (human, UniProt Q12809). Put plainly: primary screen, population patch clamp on CHO cells stably expressing hERG.
For the molecule `COc1cc(NC(=O)C2CCN(S(=O)(=O)c3cnc[nH]3)CC2)cc(OC)c1OC`, the “hERG current change (%, negative = inhibition) at 1uM” value is listed as 2.95%.
`COCCn1c(=O)c2c(nc3n2CC(C)CN3Cc2ccccc2)n(C)c1=O` (centres unmarked): the “hERG current change (%, negative = inhibition) at 1uM” value is -0.925%.
To `COc1ccc(CCNC(=O)C2CCCN2C(=O)Nc2cccc(C(C)=O)c2)cc1OC` (centres unmarked) belongs 0.937%; to `COc1ccc(NC(=O)c2ccc3ncsc3c2)c2ccccc12`, 8.29%.
To `OC(CNCCCCNCC(O)C(F)(F)F)C(F)(F)F` (centres unmarked) belongs 15.8%.
As to `CCOC(=O)C1CCN(C(=O)CN2C(=O)C(C(C)C)Oc3ccccc32)CC1` (centres unmarked), the “hERG current change (%, negative = inhibition) at 1uM” value is listed as -2.01%.
Turning to `Cn1c(SCC(=O)NCc2cccs2)nnc1-c1ccc(S(=O)(=O)N2CCCC2)cc1`, the “hERG current change (%, negative = inhibition) at 1uM” value is -1.66%.
As for `COC(=O)[C@H](CC(C)C)NC(=O)Nc1ccc(S(N)(=O)=O)cc1`, the “hERG current change (%, negative = inhibition) at 1uM” value stood at 5.33%.
As to `Cc1cc(NC(=O)CN(C)CCOc2ccccc2)ccc1Br.O=C(O)C(=O)O`, the “hERG current change (%, negative = inhibition) at 1uM” value turned out to be 10.5%.
Regarding `Cn1ncc([N+](=O)[O-])c1C(=O)Nc1cccc2ccccc12`, the “hERG current change (%, negative = inhibition) at 1uM” value was 4.85%.
`CCCCN(C(=S)Nc1ccc(F)cc1)c1c(N)n(CCC)c(=O)[nH]c1=O`: the “hERG current change (%, negative = inhibition) at 1uM” value came to 1.92%.
To `CCSc1nc2sc3c(c2c2[n+]1CC(CBr)O2)CCCC3.[Br-]` (centres unmarked) belongs 13.8%; to `CCc1nc(NCCN2CCOCC2)c2oc3ccccc3c2n1.Cl`, 0.594%.
As for `COc1ccc(Cc2nnc(SCC(=O)Nc3cc(Cl)ccc3OC)[nH]c2=O)cc1`, the “hERG current change (%, negative = inhibition) at 1uM” value is 9.8%.
To `Cc1cccc(CNC(=O)CCn2ccc3cc(S(=O)(=O)N4CCCC4)ccc32)c1` belongs 8.44%.
To `CCCn1c(=O)c2[nH]cnc2n(-c2ccccc2C)c1=O` belongs 13.3%; to `COc1ccc(S(=O)(=O)N2CCN(C)CC2)c(C)c1`, 11.9%.
To `Cc1cc(C)cc(N(CC(=O)NCC2CCCO2)S(=O)(=O)c2c(C)noc2C)c1` (centres unmarked) belongs -0.711%; to `CCCCN(C(=O)CCC(=O)O)C1CC(=O)N(c2ccc(OCCC)cc2)C1=O` (centres unmarked), 11.5%; to `Cc1ccc(NC(=O)c2nccnc2C(=O)O)cc1C`, 9.83%.
`O=C(COC(=O)c1ccccc1O)Nc1ccc(OC(F)F)cc1`: the “hERG current change (%, negative = inhibition) at 1uM” value is reported as 6.17%.
Take `Cc1csc(SCC(=O)NC(C)c2ccc(F)cc2)n1` (centres unmarked): the “hERG current change (%, negative = inhibition) at 1uM” value is listed as 2.54%.
Next, `CCC1Oc2ccccc2N(Cc2ccccc2C)C1=O` (centres unmarked): -10.3%; `COC(=O)c1sccc1NC(=O)C1C2C=CC(C2)C1C(=O)O` (centres unmarked): 14.9%; `COc1cc2c(cc1OC)[C@@H]1C(=O)c3ccc4c(c3O[C@@H]1CO2)C[C@H](C(C)C)O4`: 11.5%.
`COCCNC(=S)N/N=C(\C)c1ccccc1O`: the “hERG current change (%, negative = inhibition) at 1uM” value was determined as 14.4%.
Next, `O=C(CN1CCCC1=O)NCCc1ccccc1`: 8.88%.
`COC(=O)CN1C(=O)C2(C(C#N)=C(N)Oc3c2c(C)nn3-c2ccccc2)c2ccccc21` (centres unmarked): the “hERG current change (%, negative = inhibition) at 1uM” value came to 6.69%.
To `O=C(NNS(=O)(=O)c1ccc(F)cc1)C1CCN(S(=O)(=O)c2ccccc2)CC1` belongs 9.61%; to `O=C1N=C(N2CCOCC2)S/C1=C\c1cccs1`, 1.6%.
`O=[N+]([O-])c1ccc(/C=N/n2c(C3CCCCC3)n[nH]c2=S)cc1`: the “hERG current change (%, negative = inhibition) at 1uM” value is 14.8%.
To `O=C(Cc1ccc(Cl)cc1)OCc1nnc(-c2ccccc2)o1` belongs 9.21%; to `CCCc1ncc(C(O)c2cccc3ccccc23)n1C` (centres unmarked), -8.21%; to `CSc1nc2nc(-c3ccc(F)cc3)c(CCN3CCN(C)CC3)cn2n1`, 9.08%.
Consider `CN1CCc2c(sc(NC(=O)CS(=O)(=O)c3ccc(F)cc3)c2C(N)=O)C1.Cl`, for which the “hERG current change (%, negative = inhibition) at 1uM” value is -21.4%.
Consider `CSCCC(NC(=O)c1ccccc1Br)C(=O)NCC1CCCCC1` (centres unmarked), for which the “hERG current change (%, negative = inhibition) at 1uM” value was 7.69%.
Next, `O=c1ccn(CCc2c[nH]c3ccccc23)c2c1CCCC2`: 4.21%; `CCC(C(=O)NC(C)c1ccccc1)C(=O)NC(C)c1ccccc1` (centres unmarked): 14.4%.
To `Cc1cc2oc(=O)cc(CN3CCCCC3C)c2cc1Cl` (centres unmarked) belongs 3.08%.
Next, `O=C(N/N=C/c1cccc([N+](=O)[O-])c1)c1cccs1`: 7.41%; `Cc1cc(-c2nn(-c3ccccc3F)cc2CNCCc2cnc[nH]2)c(C)s1`: -13.8%; `COC(=O)c1ccc(Cl)c(NC(=O)CN(c2ccc(OC)cc2)S(=O)(=O)c2ccccc2)c1`: 7.1%.
In the case of `COC(=O)c1ccc(NC(=O)C(=O)N2CCN(C(=S)Nc3ccccc3OC)CC2)cc1`, the “hERG current change (%, negative = inhibition) at 1uM” value was determined as 1.89%.
Next, `COc1cccc(NC(=O)N2CCN(c3ccc(C(F)(F)F)cn3)CC2)c1`: 10.4%.
To `O=C(Nc1ccc(Cl)c(Cl)c1)c1ccccc1` belongs 4.25%; to `Cc1ccc(C)c(S(=O)(=O)N2CCN(C(=O)Cn3c(=O)cnc4ccccc43)CC2)c1`, 13.2%; to `O=C(N/N=C\c1c[nH]c2ccccc12)c1ccc(O)cc1`, 14.6%.
Take `COCCNC(=O)c1ccccc1N(Cc1ccccc1)S(=O)(=O)c1ccccc1`: the “hERG current change (%, negative = inhibition) at 1uM” value stood at 12.9%.
As for `CCOc1ccc(NC(=O)CSc2nc3cccnc3n2CCOC)cc1`, the “hERG current change (%, negative = inhibition) at 1uM” value came to 0.477%.
Next, `Cc1cccc(OCC(=O)Nc2cc(NC(=O)COc3cccc(C)c3C)cc(C(=O)O)c2)c1C`: 16.1%; `COC(=O)c1cc(-c2c(C)oc3cc(OC)ccc3c2=O)c(C)o1`: 5.85%; `Cc1sc2ncnc(Sc3ccccc3C(=O)Nc3ccc(C#N)cc3)c2c1C`: 2.6%.
Consider `CC(=O)Nc1ccc(S(=O)(=O)N2CCCN(S(=O)(=O)c3ccc(NC(C)=O)cc3)CC2)cc1`, for which the “hERG current change (%, negative = inhibition) at 1uM” value worked out at 5.58%.
To `COc1ccc(-n2nc(N)c(C(N)=O)n2)cc1` belongs 16.9%; to `CN1/C(=C\C(=O)CSc2cccc[n+]2[O-])C(C)(C)c2ccccc21`, 15.8%; to `O=C1C2CCCN2C(c2ccc(Cl)c(Cl)c2)N1c1ccccn1` (centres unmarked), 16.3%.
In the case of `CCNC(=O)COC(=O)c1ccc(S(=O)(=O)N2CCCCCC2)cc1`, the “hERG current change (%, negative = inhibition) at 1uM” value worked out at 4.58%.
Next, `O=[N+]([O-])c1c(C(Cl)Cl)nn(-c2ccccc2)c1N1CCOCC1`: 5.49%.
To `COc1ccc(N2CC(C(=O)N/N=C/c3ccc([N+](=O)[O-])cc3)CC2=O)cc1` (centres unmarked) belongs -17.6%.
Next, `CC1CCC2C(=O)N(c3cccc(C(=O)Nc4ccccc4Cl)c3)C(=O)C2C1` (centres unmarked): 12.3%; `COCCn1c(SCC(=O)N2CCCCC2)nc2cccnc21`: 9.95%.
Regarding `CCN(C(=O)c1cn(CC)c(=O)c2cc(OC)c(OC)cc12)c1ccccc1C`, the “hERG current change (%, negative = inhibition) at 1uM” value was 16.9%.
In the case of `Br.COc1ccc(-c2ccncc2)cc1OC`, the “hERG current change (%, negative = inhibition) at 1uM” value amounted to 9.37%.
To `CCOc1ccc(S(=O)(=O)Nc2cccc(C(=O)NCC(c3ccccc3)N(C)C)c2)cc1` (centres unmarked) belongs 18.3%; to `Fc1cc(F)c2nc(N3CCOCC3)sc2c1`, 14.4%; to `Cc1cccc(CCN2CCN=C2N(C)C)c1`, 6.51%.
`Cc1ccc(C(=O)N/C(=C\c2cccnc2)C(=O)N2CCCC2)cc1`: the “hERG current change (%, negative = inhibition) at 1uM” value came out at 10.2%.
Next, `CC(C)c1ccc(NC(=O)Cc2ccc(NC3=NC4CS(=O)(=O)CC4S3)cc2)cc1` (centres unmarked): 16.1%; `COc1cc(NC(=O)c2cccnc2)c(Cl)cc1NC(=O)c1ccc(Cl)cc1`: 1.5%.
Regarding `COc1ccc2sc(SCCCS(=O)(=O)O)[n+](CCCS(=O)(=O)[O-])c2c1`, the “hERG current change (%, negative = inhibition) at 1uM” value was 15.8%.
Next, `O=C(COc1ccc(F)cc1F)Nc1cccnc1`: 14.1%; `CC(C)(C)c1ccc(OCCn2ccccc2=O)cc1`: 1.97%; `CC1=C(Cl)C2=NS(=O)(=O)CCN2C=C1Cl`: 8.42%.
On to `COc1cc(C(=S)N2CCOCC2)ccc1OC(=O)c1ccccc1`, for which the “hERG current change (%, negative = inhibition) at 1uM” value is on record as 9.48%.
Next, `CC(C)c1ccc(NC(=O)COc2ccc(C3SCCS3)cc2)cc1`: 13.1%; `COc1ccc2c(c1)-c1nc(/N=C/c3cccc(OC)c3O)sc1CC2`: 14.3%; `O=C(Cn1nc(C(=O)O)c2ccccc2c1=O)Nc1ccc2c(c1)OCO2`: 9.39%.
To `COC(=O)c1cc(-c2ccc(F)cc2)n(-c2ccccc2)n1` belongs 13.4%.
`COc1cccc(C(=O)Nc2c(C(N)=O)oc3ccccc23)c1`: the “hERG current change (%, negative = inhibition) at 1uM” value was found to be 7.42%.
With `Cn1c(=S)[nH]c2ccccc21`, the “hERG current change (%, negative = inhibition) at 1uM” value amounted to 9.19%.
`COC(=O)c1sc2ncn(CC(=O)N(C)C3CCCCC3)c(=O)c2c1C`: the “hERG current change (%, negative = inhibition) at 1uM” value turned out to be 12.9%.
To `O=C(O)c1ccc2c(c1)C(=O)N(c1cc(C(=O)O)ccc1Br)C2=O` belongs -8.05%; to `COc1ccccc1C(CC(=O)c1ccccc1)CC(=O)c1ccccc1`, 14.2%; to `C=CCn1c(SCC(=O)NC2CCCCC2)nnc1C(C)NC(=O)c1cccs1` (centres unmarked), -1.08%.
To `COc1ccc2c(-c3ccccc3)cc(N3CCOCC3)nc2c1.O=C(O)C(=O)O` belongs 14.1%; to `COc1ccc(S(=O)(=O)N2CCOCC2)cc1NC(=O)c1ccc(-n2nc(C)cc2C)cc1`, 6.25%; to `Cc1ccc(N(CC(=O)NC(C)c2ccccc2)S(=O)(=O)c2c(C)noc2C)cc1` (centres unmarked), 16%.
Next, `O=C(CSc1ccc(Br)cc1)N1CCOCC1`: 14.8%; `COC1Cc2ccccc2N(C(N)=O)c2ccccc21` (centres unmarked): 10.6%.
